From PubChem BioAssay AID1645887 (National Center for Advancing Translational Sciences (NCATS), 2021)
Where “and” joins values, the source holds several entries; their conditions need not be identical. Equal entries are not always repeated. Screen size: about 16,000 compounds; about 40 (0.2%) were called active. Roughly 1% stayed inconclusive and do not appear here. Calls come from the whole dose curve; as a rule, active = well fitted activation curve with a large enough effect; inconclusive = small, poorly fitted or top-dose-only effect, or another doubt; inactive = no such curve, though single readings can be large or run the other way. The list shows a part of the results.

Each molecule was assayed against Rap guanine nucleotide exchange factor 4 (Homo sapiens) (UniProt Q8WZA2) (assay: Validation qHTS for agonist of cAMP-regulated guanine nucleotide exchange factor 4 (EPAC2)). Conditions: EPAC2 Rap1B BODIPY-GDP exchange, fluorescence; activation: active compounds read high.
Sequence of UniProt Q8WZA2 (Q8WZA2 whole entry, looked up): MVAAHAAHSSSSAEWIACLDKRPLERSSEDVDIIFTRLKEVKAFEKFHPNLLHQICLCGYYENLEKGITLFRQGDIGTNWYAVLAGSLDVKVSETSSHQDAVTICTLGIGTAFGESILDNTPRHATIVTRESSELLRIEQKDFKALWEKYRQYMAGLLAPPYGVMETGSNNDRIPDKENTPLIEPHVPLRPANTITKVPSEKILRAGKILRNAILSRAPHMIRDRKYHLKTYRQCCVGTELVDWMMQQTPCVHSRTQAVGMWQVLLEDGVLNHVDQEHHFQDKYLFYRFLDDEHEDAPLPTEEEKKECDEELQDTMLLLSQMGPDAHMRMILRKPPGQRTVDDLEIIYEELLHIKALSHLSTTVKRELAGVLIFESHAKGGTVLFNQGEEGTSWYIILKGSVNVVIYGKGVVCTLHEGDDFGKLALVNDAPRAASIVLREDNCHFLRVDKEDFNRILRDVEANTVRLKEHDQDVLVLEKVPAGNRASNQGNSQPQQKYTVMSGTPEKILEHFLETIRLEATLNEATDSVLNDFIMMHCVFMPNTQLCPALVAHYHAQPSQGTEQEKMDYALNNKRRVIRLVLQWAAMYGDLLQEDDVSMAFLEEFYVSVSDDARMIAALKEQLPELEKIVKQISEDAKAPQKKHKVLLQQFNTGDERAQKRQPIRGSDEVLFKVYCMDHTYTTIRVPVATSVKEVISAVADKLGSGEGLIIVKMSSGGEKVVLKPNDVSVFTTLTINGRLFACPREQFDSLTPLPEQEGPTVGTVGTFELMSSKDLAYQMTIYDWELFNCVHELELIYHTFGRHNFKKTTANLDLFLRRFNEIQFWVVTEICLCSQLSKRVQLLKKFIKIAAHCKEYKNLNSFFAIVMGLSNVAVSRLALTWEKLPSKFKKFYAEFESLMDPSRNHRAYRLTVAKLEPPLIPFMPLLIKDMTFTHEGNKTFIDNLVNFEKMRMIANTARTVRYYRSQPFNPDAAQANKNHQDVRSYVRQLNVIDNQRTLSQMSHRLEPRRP
Method in brief: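 Fluorescent exchange assay: 100 nM EPAC2 with 250 nM RAP1B-BODIPY-GDP and 50 uM GDP; compound added, 5 min at room temperature, then read (ex 480/em 540 nm) every 5 min for 30 min. Normalized to 6.5 mM cAMP agonist control.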
% is set by controls: 0 for no effect and ±100 for the full control effect.
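Note: exchange makes BODIPY-GDP fluorescence drop when released from Rap1B; series mostly up to about 150 µM.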

activation, inactive:
c1cncc(CNc2ncncc2-c2cccnc2)c1 3.38%
Cc1ccc2oc(-c3ccccc3)cc(=O)c2c1 0.141%
O=C(c1cnccn1)N1CCC2(CCCN(c3ccccn3)C2)CC1 0.0576%
CN1CCC(=C2c3ccccc3Sc3ccccc32)CC1 -13.4%
CC(C)c1c(C(=O)N2CCCCC2c2cccnc2)cnn1-c1nccc(-c2cccs2)n1 (stereo not given) -15.4%
Nc1c2ccccc2nc2ccccc12 -16.6% and 2.24%
COc1cccc(Nc2ncc3nc(-c4ccccc4)c(=O)n(C[C@H]4CCCO4)c3n2)c1 13.8%
CC(=O)NCCNc1cc(-c2ccccc2C(F)(F)F)ncn1 -13%
CCCCCCCCCCCC[n+]1ccc(/C=C/c2c[nH]c3ccccc23)c2ccccc21 -60.9%
CC(=O)[C@]1(O)CCC2C3CCC4=CC(=O)CC[C@@]4(C)C3CC[C@]21C (stereo not given in full) -19%
Cc1cnc(SCc2ccccn2)nc1C1CCCN(C(=O)c2coc3c2C(=O)CCC3)C1 (stereo not given) -0.704%
Cc1ccc2nc(/C=C/c3ccc(N(C)C)cc3)ccc2c1 -19.2%
COc1ccc(-c2nc3cnc(N4CCN(C)CC4)nc3n(CCC#N)c2=O)cc1 2.65%
CN(C)C(=O)c1ccc(-c2nc(NCc3ccccc3)c3ccccc3n2)cc1 -15.5%
COc1ccc(CN2CCC3(CC2)c2ccccc2[C@@H](NC(=O)c2ccccc2)[C@@H]3O)cc1O 3.4%
COc1ccc(CNc2ncnc3ccc(-c4cccnc4)cc23)c(OC)c1 -16.3%
Cc1ccc(=O)n(-c2ccccc2)c1 -7.66% and 8.46% and -28.9%
COC1=CC(=O)C(C(=O)c2ccccc2)=CC1=O -9.46%
COc1ccc2[nH]cc(CCNc3ncncc3-c3ccc(C(=O)N(C)C)cc3)c2c1 -19.4%
COc1cccc(-c2nc(N(C)C)c3ccccc3n2)c1 -2.76%
COc1ccc(S[C@@H](CCN2CC[C@H](C)CCC2=O)c2ccccc2)cc1 -18.7%
C=C1C[C@]23C[C@@]1(O)CC[C@H]2[C@@]12C=C[C@H](O)C(C)(C(=O)O1)[C@H]2[C@@H]3CC(=O)O -3.39%
COc1ccccc1CNc1ncncc1-c1cccnc1 -8.93%
COc1ccccc1-c1ccnc(-n2ncc(C(=O)NC(c3cccnc3)C(F)(F)F)c2C)n1 (stereo not given) -10.8%
CCNc1ncc2nc(-c3ccc(Cl)cc3)c(=O)n(Cc3cccs3)c2n1 -11.1%
COc1ccccc1C(=O)N[C@@H]1c2ccccc2C2(CCN(C(=O)c3csnn3)CC2)[C@H]1OC -15.3%
CC(C)C[C@H](NC(=O)C1OC1C(=O)O)C(=O)NCCCCN=C(N)N (stereo not given in full) -51.2%
COc1ccccc1N1CCN(CCN(C(=O)c2ccc(F)cc2)c2ccccn2)CC1 -20.9%
c1ccc(-c2ccccn2)nc1 -28.3%
CC1(C)O[C@@H]2C[C@H]3[C@@H]4CCC5=CC(=O)C=C[C@]5(C)[C@H]4[C@@H](O)C[C@]3(C)[C@]2(C(=O)CO)O1 -19.5%
O=C(O)Cc1cc(I)c(Oc2cc(I)c(O)c(I)c2)c(I)c1 -8.12%
CC(=O)N1CCC2(CC1)CCN(c1ccccc1)CC2 -24%
CNc1nc(-c2ccccc2OC)nc2ccccc12 -12.2%
OCC(O)CO -2.55%
COc1ccccc1-c1nccc(NC2CCNCC2)n1 -9.82%
CCN(CC)CCOc1ccc2c(c1)C(=O)c1cc(OCCN(CC)CC)ccc1-2 -6.88%
CC/C(=C\c1ccc(C(=O)OC)cc1)c1cc(OC)cc2oc3ccccc3c12 -11.3%
CCS(=O)(=O)NCc1c(C)ncc2c1CCN(C(=O)c1csc(-c3cccs3)n1)C2 0.958%
Oc1ccc(Cn2cc[nH]c2=S)cc1 -8.7%
C=C[C@H](CC(C)C)N(Cc1ccccc1)S(=O)(=O)N(Cc1ccccc1)[C@@H](C=C)CC(C)C -16.1%
COc1ccc(-c2ccnc(-n3ncc(C(=O)NC(C)(C)CO)c3C3CC3)n2)cc1F 3.72%
CCCCC/C=C\C\C=C/C=C/C=C/[C@@H](SC[C@H](N)C(=O)NCC(=O)O)[C@@H](O)CCCC(=O)O 3.04%
CCC1CN(CCNC(=O)c2cn3cc(C)ccc3n2)Cc2cc(OC)ccc2O1 (stereo not given) 4.6%
Nc1ccn([C@@H]2O[C@H](CO)[C@@H](O)C2O)c(=O)n1 (stereo not given in full) -4.27% and -49.3%
CN1CCN(c2ccnc(-c3ccoc3)n2)CC1 4.77%
COc1cc(OC)c2c(=O)c(-c3ccccc3)coc2c1 5.29%
COCC(=O)N1CCC2(CC1)CN(c1ccccn1)C2 2.25%
COC(=O)c1cccc(C(=O)N2CCc3c(cnc(C)c3CNC(=O)/C=C/c3cccs3)C2)c1 -10.5%
COc1ccccc1CNc1cc(-c2ccccc2C(F)(F)F)ncn1 -0.505%
Cc1cc(C)c(NC(=O)C[C@H](CC(=O)O)c2cccc3ccccc23)c(C(=O)N2CCC3(CCCC3)CC2)c1 -14.9%
CC(C)CCCC(C)C1CCC2C3CC=C4CC(O)CC[C@@]4(C)C3CC[C@@]12C (stereo not given in full) -4.19%
CC(C)ON([C@@H](C(=O)NO)C(C)C)S(=O)(=O)c1ccc(-c2ccccc2)cc1 -28.3%
CN(C)c1ncc2nc(-c3cccs3)c(=O)n(-c3ccccc3)c2n1 18.3%
CCc1ccc2c(-c3cccc(Cl)c3)nc(=O)n(CC)c2n1 -4.25% and -2.78%
O=C(CCCCCCC(=O)Nc1ccccc1)NO -4.55% and -1.89%
CCCCCCCN(c1ccccc1)C1C[C@H]2CCCC(=O)N3CC[C@@H](C1)[C@@H]23 (stereo not given in full) -31.5%
Cc1cccc(C(=O)NCC2Cc3cc(F)cc(-c4cnccn4)c3O2)n1 (stereo not given) -18.7%
CCOC(=O)C[C@H]1c2cc(F)ccc2S(=O)(=O)N1Cc1cc(OC)c(OC)c(OC)c1 -26.5%
CCC1OC(=O)C(C)[C@@H](O[C@H]2C[C@@](C)(OC)C(O)C(C)O2)C(C)[C@@H](O[C@@H]2OC(C)CC(N(C)C)C2O)[C@@](C)(O)CC(C)C2NC(COCCOC)O[C@H](C2C)[C@@]1(C)O (stereo not given in full) -15.6%
NC[C@H]1O[C@H](O[C@H]2[C@H](O)[C@@H](O[C@H]3O[C@H](CO)[C@@H](O)[C@H](N)[C@H]3O)[C@H](N)C[C@@H]2N)[C@H](O)[C@@H](O)[C@@H]1O 1.43%
COc1cccc(-c2cncnc2NCc2ccccc2)c1 -25.9%
c1cnc2cc3c(cc2n1)C1CNCC3C1 -7.12%
CC[C@H]1OC(=O)C[C@@H](O)[C@H](C)[C@@H](O[C@@H]2O[C@H](C)[C@@H](O[C@H]3C[C@@](C)(O)[C@@H](O)[C@H](C)O3)[C@H](N(C)C)[C@H]2O)[C@@H](CC=O)C[C@@H](C)C(=O)/C=C/C(C)=C/[C@@H]1CO[C@@H]1O[C@H](C)[C@@H](O)[C@@H](OC)[C@H]1OC -5.32% and -4.91%
CCO[C@H](Cc1ccc(OCCc2ccc(OS(C)(=O)=O)cc2)cc1)C(=O)O 4.33%
COc1cc(O)ccc1CN1CCc2nnc(C(C)NC(=O)c3cc(F)ccc3F)n2CC1 (stereo not given) -11.1%
COc1ccccc1-c1ccnc(-n2ncc(C(=O)N3CCCCC3c3cccnc3)c2C)n1 (stereo not given) -4.5%
Cc1ccc(NC(=O)c2cccc(N(C)C)c2)cc1NC(=O)c1ccc(O)cc1 -22.2% and 2.43% and -9.05%
C[C@]12C[C@H](O)[C@H]3[C@@H](CCC4=CC(=O)CC[C@@]43C)[C@@H]1CC[C@@H]2C(=O)CO -5.78% and -24.9%
CN1C(=O)CCC1c1cccnc1 (stereo not given) -21.8% and 7.55%
O=S1(=O)CCOC[C@H](CC2CCCCC2)N1Cc1ccccc1F -21.2%
NC(=O)OC[C@@H]1[C@H](NC(=O)/C(=N\OCC(=O)O)c2csc(N)n2)C(=O)N1S(=O)(=O)O 2.3%
Cc1ccnc(N)c1 -11.5%
O=C(CCN1CCN(CCO)CC1)N1c2ccccc2Sc2ccc(C(F)(F)F)cc21 2.25%
COc1cc(-c2noc(C)c2C(=O)NCCc2c[nH]c3ccccc23)cc(OC)c1OC -28.3%
CN(C)C(=O)c1ccc(-c2ccc3ncnc(N(C)Cc4ccco4)c3c2)cc1 -7.43%
COc1ncc2nc(-c3ccc(Cl)cc3)c(=O)n(C)c2n1 12.9%
Cc1oc(-c2cccc(NC(=O)C3CCCN(C)C3)c2)nc1CNC(=O)c1coc2c1C(=O)CCC2 (stereo not given) -1.86%
CCCCC(CC)COC(=O)C(C#N)=C(c1ccccc1)c1ccccc1 (stereo not given) 19.5%
CCCC[C@H]1COCCS(=O)(=O)N1Cc1cccc([N+](=O)[O-])c1 -9%
Nc1ncnc2c1ncn2[C@@H]1O[C@H](COP(=O)(O)OP(=O)(O)O)[C@@H](O)[C@H]1O 10.5% and 12.2%
